Among all 270,000 compounds or so, about 620 (0.23%) were called active. Inconclusive results, whose numbers are uncertain, are shown with a selection of clear calls. Calls come from the whole dose curve; as a rule, active = well fitted inhibition curve with a large enough effect in the polarisation, with a control signal flat (not every such curve was filed as active); inconclusive = small, poorly fitted or top-dose-only effect, or effect the other way, or a change in a side signal; inactive = no such curve, though single readings can be large or run the other way; the % refers to the polarisation. A potency beside an inconclusive call is a rough fit, not a confirmed value. A note “side channel” means that the fit belongs to a control or component signal, not to the main read-out.
target: Menin (Homo sapiens) (UniProt O00255); assay: qHTS Assay for Inhibitors Targeting the Menin-MLL Interaction in MLL Related Leukemias: Competition With Texas Red Labeled MLL-derived Mutant Peptide; settings: fluorescence polarization; FP activity change, negative = inhibition: at 61.6 µM (top of the series); for FP activity change, negative = inhibition: % of control where 0% means no effect
Potency is the fitted concentration of half-maximal effect; tags give direction and shape of the fitted curve or compound fluorescence and quenching.

Sequence of UniProt O00255 (O00255 whole entry, looked up): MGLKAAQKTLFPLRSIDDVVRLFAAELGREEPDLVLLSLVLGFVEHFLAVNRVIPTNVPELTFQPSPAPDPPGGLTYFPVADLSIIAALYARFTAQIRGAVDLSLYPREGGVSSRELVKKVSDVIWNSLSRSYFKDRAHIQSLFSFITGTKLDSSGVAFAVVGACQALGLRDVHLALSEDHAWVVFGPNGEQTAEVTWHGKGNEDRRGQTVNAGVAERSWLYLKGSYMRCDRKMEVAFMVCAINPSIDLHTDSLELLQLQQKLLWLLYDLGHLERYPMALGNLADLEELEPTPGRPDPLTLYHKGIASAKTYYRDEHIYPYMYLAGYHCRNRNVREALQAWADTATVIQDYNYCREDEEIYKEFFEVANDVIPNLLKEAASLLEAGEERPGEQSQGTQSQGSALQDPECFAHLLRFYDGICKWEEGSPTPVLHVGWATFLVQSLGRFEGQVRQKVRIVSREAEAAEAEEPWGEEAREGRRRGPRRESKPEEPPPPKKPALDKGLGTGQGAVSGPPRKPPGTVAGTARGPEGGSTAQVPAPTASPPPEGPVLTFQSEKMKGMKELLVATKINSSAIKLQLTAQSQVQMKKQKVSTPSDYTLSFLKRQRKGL

| Structure (SMILES) | Potency | FP activity change, negative = inhibition |
| --- | --- | --- |
| COc1ccc2c(=O)c(-c3ccccc3)coc2c1 | inconclusive: 12.6 µM [fluorescent, side channel, partial curve] | – |
| Cc1ccc(O)c(NC(=O)c2cc(-c3ccc(F)cc3)on2)c1 | inconclusive: 12.6 µM [inhibitor, partial curve] | – |
| Cc1ccc(-n2nc3ccc(N)cc3n2)cc1Cl | inconclusive: 11.2 µM [quencher, side channel, partial curve] | – |
| CC(=O)c1ccc(NC(=O)CCCN2C(=O)/C(=C/C(C)=C/c3ccccc3)SC2=S)cc1 | – | inactive: 2.65% |
| CC(C)(C)c1nc(NCCN2CCOCC2)c2nnn(Cc3ccccc3Cl)c2n1 | inconclusive: 1.12 µM [fluorescent, side channel, full curve] | – |
| COc1cc(CC(=O)OCC(=O)N2C(C)CCCC2C)cc(OC)c1OC (stereo not drawn) | inconclusive: 39.8 µM [inhibitor, single point] | – |
| CC(=O)C1=C(O)C(=O)N(c2ccc(Br)cn2)C1c1cccc([N+](=O)[O-])c1 (stereo not drawn) | inconclusive: 28.2 µM [quencher, side channel, single point] | – |
| C#CCn1c(=O)c2c(nc(/C=C/c3cccc(OC)c3)n2C)n(CCCO)c1=O | – | inactive: -6.38% |
| CN(C)C=Nc1ccc2nc3c(cc2c1)[nH]c1ccccc13 | inconclusive: 15.8 µM [quencher, side channel, partial curve] | – |
| Cc1cc(NCCCn2ccnc2)n2nc(-c3ccc(F)cc3)cc2n1 | inconclusive: 15.8 µM [inhibitor, partial curve] | – |
| C[N+](C)(C)C/C=C1/COCO1 | – | inactive: 14.9% |
| Cc1c(NC(=O)c2ccco2)c(=O)n(-c2ccccc2)n1C | – | inactive: 16.9% |
| N=C1C(c2nc(-c3ccc(Cl)cc3)cs2)=C(O)CN1CCCN1CCOCC1 | inconclusive: 39.8 µM [quencher, single point] | – |
| Cc1ccc(C(=O)Nc2nc(=O)n(C(=O)c3ccccc3Cl)s2)cc1 | inconclusive: 17.8 µM [quencher, side channel, single point] | – |
| Fc1cc(F)c2nc(Nc3nc4cc5c(cc4s3)OCO5)sc2c1 | inconclusive: 25.1 µM [quencher, side channel, single point] | – |
| O=C(CCN1C(=O)/C(=C/c2cccs2)SC1=S)Nc1ccccc1O | inconclusive: 22.4 µM [quencher, side channel, partial curve] | – |
| O=C(C[n+]1ccc(CCSc2ccc(F)cc2)cc1)c1ccccc1 | active: 17.8 µM | – |
| C(#Cc1ccccc1)C[N+]1(CC#Cc2cccc3ccccc23)CCOCC1 | inconclusive: 12.6 µM [fluorescent, side channel, partial curve] | – |
| Cc1ccc(NC(=O)CSC2=C(C#N)C(c3ccc4c(c3)OCO4)C3=C(CCCC3=O)N2)c(C)c1 (stereo not drawn) | inconclusive: 35.5 µM [quencher, side channel, single point] | – |

| Structure (SMILES) | Potency | FP activity change, negative = inhibition |
| --- | --- | --- |
| Cc1ccc(S(=O)(=O)c2cc3cc(Br)ccc3oc2=O)cc1 | inconclusive: 22.4 µM [fluorescent, side channel, single point] | – |
| O=C(N/N=C/c1sc(N2CCOCC2)nc1-c1ccccc1)c1ccccc1O | inconclusive: 25.1 µM [quencher, side channel, partial curve] | – |
| O=C(Nc1nc(-c2cccs2)cs1)c1ccc(Cl)s1 | inconclusive: 25.1 µM [quencher, side channel, single point] | – |
| O=C(NC(=S)Nc1cccc(Cl)c1N1CCCCC1)c1ccc2c(c1)OCCO2 | inconclusive: 39.8 µM [inhibitor, single point] | – |
| O=C1CCN(CCc2ccccc2)CCN1C(CSc1ccc(Br)cc1)c1ccccc1 (stereo not drawn) | – | inactive: 10.3% |
| CCNc1ccc(S(=O)(=O)N(C)C)cc1NCC(=O)Nc1ccc(F)c(Cl)c1 | inconclusive: 28.2 µM [quencher, side channel, single point] | – |
| CSc1nc(C)cc(/C=C\c2ccccc2)c1C#N | – | inactive: -4.08% |
| Cc1cccc(Nc2ccc([N+](=O)[O-])cc2C(=O)O)c1 | inconclusive: 39.8 µM [quencher, side channel, single point] | – |
| CC(C)CCNC(=O)C12CN(Cc3ccccc3)CC1C(c1cccc([N+](=O)[O-])c1)=NO2 (stereo not drawn) | inconclusive: 3.16 µM [fluorescent, side channel, single point] | – |
| CC(C)NS(=O)(=O)c1ccc(OCC(=O)Nc2ccc3c(c2)OCO3)c(Cl)c1 | inconclusive: 20 µM [quencher, side channel, single point] | – |
| CN(C)c1ccc(-c2ccc3ncnc(NCc4ccccc4)c3c2)cc1 | inconclusive: 35.5 µM [quencher, side channel, single point] | – |
| Cc1ccc2nc(NC(=O)c3ccc(S(=O)(=O)N4CCCc5ccccc54)cc3)sc2c1 | inconclusive: 39.8 µM [inhibitor, single point] | – |
| CC(C)Oc1cccc(C(=O)N2CCCC2)c1 | inconclusive: 35.5 µM [fluorescent, side channel, single point] | – |
| CCOC(=O)N1CCN(C(=O)CSc2ccc3nnc(-c4cccnc4)n3n2)CC1 | inconclusive: 22.4 µM [inhibitor, partial curve, poor fit] | – |
| CCCSC1=N/C(=C\C=C\c2ccco2)C(=O)S1 | inconclusive: 12.6 µM [quencher, side channel, partial curve] | – |
| Brc1cc2c(cc1/C=N/Nc1nc(N3CCCCC3)nc(N3CCCCC3)n1)OCO2 | inconclusive: 8.91 µM [inhibitor, partial curve] | – |
| Nc1c(C(=O)c2ccc(Cl)cc2)sc2nc3c(cc12)CCC3 | inconclusive: 3.98 µM [quencher, side channel, partial curve] | – |
| O=C(Nc1ccc([N+](=O)[O-])cc1O)Nc1ccccc1Br | inconclusive: 12.6 µM [quencher, side channel, partial curve] | – |
| Cc1ccc(C(=O)N/N=C(/CC(=O)c2cccs2)C(F)(F)F)cc1 | inconclusive: 15.8 µM [quencher, side channel, partial curve] | – |

Source: PubChem BioAssay AID1768 (National Center for Advancing Translational Sciences (NCATS), 2009)
